Experimental data: the supplement of paper PMC8728848
Some of the results follow.

Experiments:
Test in all cases: glycan array binding signal (z-score within array); higher = stronger binding
Conditions in all cases: glycan notation: IUPAC condensed, linker removed
Glc(a1-4)Glc = target: Glc(a1-4)Glc
How it was run: (§1)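 Glycan array data came from 3228 arrays in the Consortium for Functional Glycomics database, and only arrays with an available protein sequence were kept. Glycan names were put into IUPAC-condensed notation, and columns mapping to the same glycan were averaged. The binding signal is a within-array Z-score, averaged across arrays of one protein sequence run at different concentrations or buffers and across linkers. A negative Z-score can be read as non-binding.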

[1] = target: Glc(a1-4)Glc(a1-4)Glc(a1-4)Glc
How it was run: as §1

Glc(a1-6)Glc(a1-6)Glc = target: Glc(a1-6)Glc(a1-6)Glc
How it was run: as §1

[2] = target: Glc(a1-6)Glc(a1-6)Glc(a1-6)Glc
How it was run: as §1

Glc(b1-4)Glc = target: Glc(b1-4)Glc
How it was run: as §1

Glc(b1-6)Glc = target: Glc(b1-6)Glc
How it was run: as §1

GlcA(b1-3)Gal = target: GlcA(b1-3)Gal
How it was run: as §1

GlcA(b1-3)GlcNAc = target: GlcA(b1-3)GlcNAc
How it was run: as §1

GlcA(b1-6)Gal = target: GlcA(b1-6)Gal
How it was run: as §1

[3] = target: GlcNAc(a1-3)Gal(b1-4)GlcNAc
How it was run: as §1

[4] = target: GlcNAc(a1-4)Gal(b1-3)GlcNAc
How it was run: as §1

[5] = target: GlcNAc(a1-4)Gal(b1-4)GalNAc
How it was run: as §1

[6] = target: GlcNAc(a1-4)Gal(b1-4)GlcNAc
How it was run: as §1

[7] = target: GlcNAc(a1-4)Gal(b1-4)GlcNAc(b1-3)Gal(b1-4)Glc
How it was run: as §1

[8] = target: GlcNAc(a1-4)Gal(b1-4)GlcNAc(b1-3)Gal(b1-4)GlcNAc
How it was run: as §1

[9] = target: GlcNAc(a1-4)Gal(b1-4)GlcNAc(b1-3)Gal(b1-4)GlcNAc(b1-3)Gal(b1-4)GlcNAc
How it was run: as §1

[10] = target: GlcNAc(a1-4)Gal(b1-4)GlcNAc(b1-3)Gal(b1-4)[Fuc(a1-3)]GlcNAc(b1-3)Gal(b1-4)[Fuc(a1-3)]GlcNAc
How it was run: as §1

[11] = target: GlcNAc(a1-6)Gal(b1-4)GlcNAc
How it was run: as §1

[12] = target: GlcNAc(b1-2)Gal(b1-3)GalNAc
How it was run: as §1

[13] = target: GlcNAc(b1-2)Man(a1-3)[GlcNAc(b1-2)Man(a1-6)]Man(b1-4)GlcNAc(b1-4)GlcNAc
How it was run: as §1

[14] = target: GlcNAc(b1-2)Man(a1-3)[GlcNAc(b1-2)Man(a1-6)]Man(b1-4)GlcNAc(b1-4)[Fuc(a1-6)]GlcNAc
How it was run: as §1

[15] = target: GlcNAc(b1-2)Man(a1-3)[GlcNAc(b1-4)][GlcNAc(b1-2)Man(a1-6)]Man(b1-4)GlcNAc(b1-4)GlcNAc
How it was run: as §1

[16] = target: GlcNAc(b1-2)[GlcNAc(b1-4)]Man(a1-3)[GlcNAc(b1-2)Man(a1-6)]Man(b1-4)GlcNAc(b1-4)GlcNAc
How it was run: as §1

[17] = target: GlcNAc(b1-2)[GlcNAc(b1-4)]Man(a1-3)[GlcNAc(b1-4)][GlcNAc(b1-2)Man(a1-6)]Man(b1-4)GlcNAc(b1-4)GlcNAc
How it was run: as §1

[18] = target: GlcNAc(b1-2)[GlcNAc(b1-4)]Man(a1-3)[GlcNAc(b1-4)][GlcNAc(b1-2)[GlcNAc(b1-6)]Man(a1-6)]Man(b1-4)GlcNAc(b1-4)GlcNAc
How it was run: as §1

[19] = target: GlcNAc(b1-2)[GlcNAc(b1-4)]Man(a1-3)[GlcNAc(b1-4)][GlcNAc(b1-2)[GlcNAc(b1-6)]Man(a1-6)]Man(b1-4)GlcNAc(b1-4)[Fuc(a1-6)]GlcNAc
How it was run: as §1

[20] = target: GlcNAc(b1-2)[GlcNAc(b1-6)]Man(a1-6)[GlcNAc(b1-2)Man(a1-3)]Man(b1-4)GlcNAc(b1-4)GlcNAc
How it was run: as §1

[21] = target: GlcNAc(b1-2)[GlcNAc(b1-6)]Man(a1-6)[GlcNAc(b1-2)Man(a1-3)]Man(b1-4)GlcNAc(b1-4)[Fuc(a1-6)]GlcNAc
How it was run: as §1

[22] = target: GlcNAc(b1-2)[GlcNAc(b1-6)]Man(a1-6)[GlcNAc(b1-2)Man(a1-3)][GlcNAc(b1-4)]Man(b1-4)GlcNAc(b1-4)GlcNAc
How it was run: as §1

GlcNAc(b1-3)Gal = target: GlcNAc(b1-3)Gal
How it was run: as §1

[23] = target: GlcNAc(b1-3)Gal(b1-3)GalNAc
How it was run: as §1

GlcNAc(b1-3)Gal(b1-4)Glc = target: GlcNAc(b1-3)Gal(b1-4)Glc
How it was run: as §1

[24] = target: GlcNAc(b1-3)Gal(b1-4)GlcNAc
How it was run: as §1

[25] = target: GlcNAc(b1-3)Gal(b1-4)GlcNAc(b1-3)Gal(b1-4)GlcNAc
How it was run: as §1

GlcNAc(b1-3)GalNAc = target: GlcNAc(b1-3)GalNAc
How it was run: as §1

GlcNAc(b1-3)Man = target: GlcNAc(b1-3)Man
How it was run: as §1

[26] = target: GlcNAc(b1-3)[GlcNAc(b1-4)][GlcNAc(b1-6)]GlcNAc
How it was run: as §1

[27] = target: GlcNAc(b1-3)[GlcNAc(b1-6)]Gal(b1-4)GlcNAc
How it was run: as §1

[28] = target: GlcNAc(b1-3)[GlcNAc(b1-6)]GalNAc
How it was run: as §1

[29] = target: GlcNAc(b1-4)Gal(b1-4)GlcNAc
How it was run: as §1

GlcNAc(b1-4)GlcNAc = target: GlcNAc(b1-4)GlcNAc
How it was run: as §1

[30] = target: GlcNAc(b1-4)GlcNAc(b1-4)GlcNAc
How it was run: as §1

[31] = target: GlcNAc(b1-4)GlcNAc(b1-4)GlcNAc(b1-4)GlcNAc(b1-4)GlcNAc
How it was run: as §1

[32] = target: GlcNAc(b1-4)GlcNAc(b1-4)GlcNAc(b1-4)GlcNAc(b1-4)GlcNAc(b1-4)GlcNAc
How it was run: as §1

[33] = target: GlcNAc(b1-4)[GlcNAc(b1-6)]GalNAc
How it was run: as §1

B1: CIH1 (Colletotrichum higginsianum) (protein)
chain: LPQATPTTPTPTSASAAATISATSSPTCSPGPVIDYTVVSGDTLTIISQRFSSGICNIADASGITNPNFLSLGQVLQVPTYVCTPDNTSCLAKEGSDTCVEGGPATHTIVAGDTFFLVAQSLGLDVNALLAANEGVDPLLLQIGDVINIPVC
Glc(a1-4)Glc
  glycan array binding signal (z-score): -0.061
[1]
  glycan array binding signal (z-score): -0.047
Glc(a1-6)Glc(a1-6)Glc
  glycan array binding signal (z-score): -0.015
[2]
  glycan array binding signal (z-score): -0.064
Glc(b1-4)Glc
  glycan array binding signal (z-score): -0.046
Glc(b1-6)Glc
  glycan array binding signal (z-score): -0.076
GlcA(b1-3)Gal
  glycan array binding signal (z-score): -0.065
GlcA(b1-3)GlcNAc
  glycan array binding signal (z-score): -0.086
GlcA(b1-6)Gal
  glycan array binding signal (z-score): -0.073
[3]
  glycan array binding signal (z-score): -0.085
[4]
  glycan array binding signal (z-score): -0.069
[5]
  glycan array binding signal (z-score): -0.052
[6]
  glycan array binding signal (z-score): -0.026
[7]
  glycan array binding signal (z-score): -0.054
[8]
  glycan array binding signal (z-score): -0.069
[9]
  glycan array binding signal (z-score): -0.08
[10]
  glycan array binding signal (z-score): -0.024
[11]
  glycan array binding signal (z-score): -0.042
[12]
  glycan array binding signal (z-score): -0.056
[13]
  glycan array binding signal (z-score): -0.066
[14]
  glycan array binding signal (z-score): -0.06
[15]
  glycan array binding signal (z-score): -0.069
[16]
  glycan array binding signal (z-score): -0.068
[17]
  glycan array binding signal (z-score): -0.065
[18]
  glycan array binding signal (z-score): -0.045
[19]
  glycan array binding signal (z-score): -0.072
[20]
  glycan array binding signal (z-score): -0.013
[21]
  glycan array binding signal (z-score): -0.074
[22]
  glycan array binding signal (z-score): -0.072
GlcNAc(b1-3)Gal
  glycan array binding signal (z-score): -0.064
[23]
  glycan array binding signal (z-score): -0.064
GlcNAc(b1-3)Gal(b1-4)Glc
  glycan array binding signal (z-score): -0.077
[24]
  glycan array binding signal (z-score): -0.067
[25]
  glycan array binding signal (z-score): -0.076
GlcNAc(b1-3)GalNAc
  glycan array binding signal (z-score): -0.063
GlcNAc(b1-3)Man
  glycan array binding signal (z-score): -0.072
[26]
  glycan array binding signal (z-score): -0.085
[27]
  glycan array binding signal (z-score): -0.044
[28]
  glycan array binding signal (z-score): -0.066
[29]
  glycan array binding signal (z-score): -0.061
GlcNAc(b1-4)GlcNAc
  glycan array binding signal (z-score): -0.09
[30]
  glycan array binding signal (z-score): 2.91
[31]
  glycan array binding signal (z-score): 9.28
[32]
  glycan array binding signal (z-score): 20
[33]
  glycan array binding signal (z-score): -0.08
